Laboratory results published in patent EP1064284B1, “HYPNOTIC BETA-CARBOLINE DERIVATIVES, PROCESS FOR THEIR PREPARATION AND THEIR USE AS MEDICINAL PRODUCTS” (priority 1998, dated 1999).

System: 10- to 14-day-old chicks of chair label JA657 strain
Experiment: Hypnotic and sedative effects in chicks (IM administration)
Settings: for ST: sleep time; for FAT: falling-asleep time
[1] = 1 µmol/100 g IM, ranges = limit values of batch averages
[2] = 0.5 µmol/100 g IM, NA = animals remained conscious, ranges = limit values of batch averages
[3] = 1 µmol/100 g IM, NA = animals remained conscious, ranges = limit values of batch averages
[4] = 0.5 µmol/100 g IM, ranges = limit values of batch averages
[5] = 2 µmol/100 g IM, ranges = limit values of batch averages
[6] = 2 µmol/100 g IM, NA = animals remained conscious, ranges = limit values of batch averages

Molecule	Sedation time [1] [min]	FAT [3] [min]	ST [4] [min]	ST [1] [min]	further results
COc1ccc2[nH]c3c(c2c1)CCN=C3C [10-methoxyharmalan, reference compound]					Sedation time (1.4 µmol/100 g IM): 0 min; ST (1.4 µmol/100 g IM): 0 min
CCC1=C2c3[nH]c4ccc(OC)cc4c3CCN2C(=S)CC1 [Example 7, 9-methoxy-1-ethyl-2,3,4,6,7,12-hexahydroindolo[2,3-a] quinolizine-4-thione]	30	5	28	35	Sedation time (0.5 µmol/100 g IM): 10 min; FAT [2]: 8 min
CCCC(C)C1(CC)C(=O)NC(=O)NC1=O (stereo not drawn) [Pentobarbital, reference compound]		13	0	36	
COc1ccc2[nH]c3c(c2c1)CCN1C(=O)CCC(C(C)C)=C31 [Example 3, 9-methoxy-1-isopropyl-2,3,4,6,7,12-hexahydroindolo[2,3-a] quinolizin-4-one]					Sedation time (0.75 µmol/100 g IM): 1 min; FAT (0.75 µmol/100 g IM): 12 min; ST (0.75 µmol/100 g IM): 23 min
COc1ccc2[nH]c3c(c2c1)CCN1C(=O)CCC(c2ccc(F)cc2)=C31 [Example 13, 9-methoxy-1-(p-fluorophenyl)-2,3,4,6,7,12-hexahydroindolo [2,3-a]quinolizin-4-one]	23	15		29	
COc1ccc(C2=C3c4[nH]c5ccc(OC)cc5c4CCN3C(=O)CC2)cc1 [Example 14, 9-methoxy-1-(p-methoxyphényl) -2,3,4,6,7, 12-hexahydroindolo [2,3-a]quinolizin-4-one]	29	10		15	
COc1ccc2[nH]c3c(c2c1)CCN1C(=O)CCC(c2ccccn2)=C31 [Example 16, 9-methoxy-1-(pyrid-2'-yl)-2,3,4,6,7,12-hexahydroindolo [2,3-a]quinolizin-4-one]	42	6.5		15	
CCC1=C2c3[nH]c4cc(CC)c(OC)cc4c3CCN2C(=O)CC1 [Example 6, 9-methoxy-1,10-diethyl-2,3,4,6,7,12-hexahydroindolo[2,3-a] quinolizin-4-one]	5	8		102	
CCC1=C2c3ccc4ccc(OC)cc4c3CCN2C(=O)CC1 [Example 9, 11-ethyl-3-methoxy-5,8,9, 10-tetrahydro-6H-benzo[f]pyrido[2,1-a]isoquinolin-8-one]	16	11		43	
COc1ccc2c3c([nH]c2c1)C(C)=NCC3 [Harmaline, harmaline, reference compound]					Sedation time (1.4 µmol/100 g IM): 0 min; ST (1.4 µmol/100 g IM): 0 min
COc1ccc2[nH]c3c(c2c1)CCN1C(=S)CCC(c2ccccc2)=C31 [Example 11, 9-methoxy-1-phenyl-2,3,4,6,7,12-hexahydroindolo [2,3-a] [beta]quinolizin 4-thione]	24	8	20	25	Sedation time (0.5 µmol/100 g IM): 8 min; FAT [2]: 9 min
CCC1CCC(=O)N2CCc3c([nH]c4ccc(OC)cc34)C12 (stereo not drawn) [Example 8, 9-methoxy-1-ethyl-1,2,3,4,6,7,12,12b-octahydroindolo [2,3-a] quinolizin-4-one]					Sedation time [5]: 37 min; FAT [6]: 15 min; ST [5]: 15 min
CN1C(=O)CN=C(c2ccccc2)c2cc(Cl)ccc21 [Diazepam, reference compound]	17 to 20	2 to 7	10 to 50	24 to 70	Sedation time [5]: 14 to 15 min; FAT [2]: 3 to 6 min; FAT [6]: 2 to 5 min; ST [5]: 81 to 100 min
COc1ccc2[nH]c3c(c2c1)CCN1C(=O)CCC(c2ccccc2)=C31 [Example 4, 9-methoxy-1-phenyl-2,3,4,6,7,12-hexahydroindolo[2,3-a] quinolizin-4-one]	22 to 32	13 to 15	11	13 to 27	Sedation time (0.25 µmol/100 g IM): 17 min; Sedation time (0.5 µmol/100 g IM): 8 min; FAT (0.25 µmol/100 g IM): 10 min; FAT [2]: 12 min; ST (0.25 µmol/100 g IM): 9 min
COc1ccc2[nH]c3c(c2c1)CCN1C(=O)CCC(c2ccccc2)C31 (stereo not drawn) [Example 19, 9-methoxy-1-phenyl-1,2,3,4,6,7,12,12b-octahydroindolo[2,3-a]quinolizin-4-one]	33	2		35	
CCC1=C2c3[nH]c4ccc(OC)cc4c3CCN2C(=O)CC1 [Example 1, 9-methoxy-1-ethyl-2,3,4,6,7,12-hexahydroindolo [2,3-a] quinolizin-4-one]	5 to 20	6 to 14	18	28 to 101	Sedation time (0.25 µmol/100 g IM): 15 min; Sedation time (0.5 µmol/100 g IM): 17 min; FAT (0.25 µmol/100 g IM): 10 min; FAT [2]: 9 min; ST (0.25 µmol/100 g IM): 16 min
CCOC(=O)C1=C2c3[nH]c4ccc(OC)cc4c3CCN2C(=O)CC1 [Example 5, 1-carbethoxy-9-methoxy-2,3,4,6,7,12-hexahydroindolo[2,3-a] quinolizin-4-one]					Sedation time (0.75 µmol/100 g IM): 10 min; FAT (0.75 µmol/100 g IM): 12 min; ST (0.75 µmol/100 g IM): 10 min
COc1ccc2[nH]cc(CCNC(C)=O)c2c1 [Melatonin, N-acetyl-5-methoxytryptamine, reference compound]	16 to 36		0	0	Sedation time [5]: 47 to 105 min; hypnotic activity (in words) (administration in the light phase between 14.00 h and 15.00 h): no hypnotic activity; ST [5]: 0 min
COc1ccc2[nH]c3c(c2c1)CCN1C(=O)CCC(c2ccc(C)cc2)=C31 [Example 18, 9-méthoxy-1-p-tolyl-2,3,4,6,7,12-hexahydroindolo[2,3-a] quinolizin-4-one]	58	5		16	
9-methoxy-1-p-nitrophenyl-2,3,4,6,7,12-hexahydroindolo[2,3-a] quinolizin-4-one [Example 17]	38	11		7	
